{
  "source": "PubChem BioAssay AID1347428",
  "about": "(National Center for Advancing Translational Sciences (NCATS), 2020)",
  "note": "Out of some 91,000 compounds screened, about 290 (0.32%) were called active. This list was built around the results that the source calls inconclusive (neither active nor inactive); the mix of calls is not that of the screen. The call rests on the fitted dose curve; in most records, active means well fitted inhibition curve with a large enough effect; inconclusive means small, poorly fitted or top-dose-only effect; inactive means no such curve, though single readings can be large or run the other way. Potencies beside an inconclusive call are fits to weak or partial responses and may not hold up. On the % scale 0 is the no-effect control and ±100 the full control effect; potency means the concentration at half of the fitted maximal effect; tags describe the fitted curve by direction and shape.",
  "data": [
    {"molecular_target": "Single-stranded DNA cytosine deaminase (Homo sapiens) (UniProt Q9GZX7)", "sequence (Q9GZX7 whole entry, looked up)": "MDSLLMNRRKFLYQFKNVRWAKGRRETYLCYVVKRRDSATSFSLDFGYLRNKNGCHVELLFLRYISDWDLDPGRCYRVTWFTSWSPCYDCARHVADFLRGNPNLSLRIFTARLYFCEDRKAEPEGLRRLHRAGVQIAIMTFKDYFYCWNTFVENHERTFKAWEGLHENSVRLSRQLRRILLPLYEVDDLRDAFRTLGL", "test": "Primary qHTS assay for inhibitors of Activation Induced Cytidine Deaminase (AID): AID signal; further: nearly all actives have a fitted effect of over 25% in size", "conditions": "AID deamination FRET fluorescence, UDG-coupled, 4 h; activity change, negative = inhibition: at 115 µM (top of the series)", "values": [
      {"smiles": "O=C(C1CCN(c2ncnc3c2nc2n3CCCCC2)CC1)N1CCN(c2cccc(Cl)c2)CC1", "Potency": "inconclusive: 56.2 µM [inhibitor, partial curve, poor fit]"},
      {"smiles": "Cc1noc(-c2ccc(N3CCCCC3)c([N+](=O)[O-])c2)n1", "Potency": "inconclusive: 44.7 µM [inhibitor, partial curve, poor fit]"},
      {"smiles": "COc1ccc(-n2ncc(C(=O)NCCc3ccsc3)c2C2CCN(C(=O)OC(C)(C)C)CC2)cc1", "Potency": "inconclusive: 79.4 µM [inhibitor, single point]"},
      {"smiles": "Cc1cc(C)cc(NC(=O)C(=O)NCC(c2cccnc2)N2CCc3ccccc3C2)c1", "note": "(configuration not stated)", "Potency": "inconclusive: 39.8 µM [inhibitor, single point]"},
      {"smiles": "Cc1oc2cc(OCC(=O)NCCCOC(C)C)ccc2c(=O)c1-c1ccc(Cl)cc1", "activity change, negative = inhibition": "inactive: -22.2%"},
      {"smiles": "Cc1nn(Cc2ccccc2Cl)c(C)c1NC(=O)c1cc(C(C)C)on1", "Potency": "inconclusive: 89.1 µM [inhibitor, single point]"},
      {"smiles": "O=C(NCCc1ccccc1)c1sc2ncccc2c1-n1cccc1", "Potency": "inconclusive: 39.8 µM [inhibitor, partial curve]"},
      {"smiles": "OCCN1CCN(CC/C=C2/c3ccccc3Sc3ccc(C(F)(F)F)cc32)CC1", "Potency": "inconclusive: 79.4 µM [inhibitor, partial curve]"},
      {"smiles": "CCCN1C(=O)c2[nH]nc(-c3ccccc3O)c2C1c1ccc(OCc2ccccc2)c(OC)c1", "note": "(configuration not stated)", "Potency": "inconclusive: 112 µM [inhibitor, partial curve, poor fit]"},
      {"smiles": "CCn1c(C(=O)NCc2ccccc2C)cc2oc3ccccc3c21", "Potency": "inconclusive: 50.1 µM [inhibitor, partial curve, poor fit]"},
      {"smiles": "Cc1ccc(N/N=C/C=C/c2ccccc2[N+](=O)[O-])c(C)c1", "activity change, negative = inhibition": "inactive: -14.3%"},
      {"smiles": "CCN(CC)CC1CCN(C(=O)/C=C/c2ccc(C#N)cc2)CC1", "activity change, negative = inhibition": "inactive: -9.83%"},
      {"smiles": "Cc1ccccc1-c1nc2c(c(SCc3cccc(Cl)c3)n1)Cc1c(CO)cnc(C)c1O2", "Potency": "inconclusive: 31.6 µM [inhibitor, full curve, poor fit]"},
      {"smiles": "Cc1ccccc1CNC(=O)c1nccnc1N", "activity change, negative = inhibition": "inactive: -4.81%"},
      {"smiles": "COc1cc(/C=C(/C#N)C(=O)c2c(Cl)cccc2Cl)cc(OC)c1OC", "activity change, negative = inhibition": "inactive: 4.11%"},
      {"smiles": "COC(=O)Cc1c(C)c2ccc(OCc3ccc(F)cc3)cc2oc1=O", "activity change, negative = inhibition": "inactive: -9.33%"},
      {"smiles": "Cc1ccc(Cc2nc3ccccc3nc2SCC(=O)N2CCCCC2)cc1", "Potency": "inconclusive: 39.8 µM [inhibitor, full curve, poor fit]"},
      {"smiles": "O=c1oc2c(F)cc(F)cc2cc1S(=O)(=O)c1ccc(F)cc1", "Potency": "inconclusive: 3.55 µM [inhibitor, full curve, poor fit]"},
      {"smiles": "CCOC(=O)c1cc(C)nc2c1c(=O)n(Cc1nc(-c3cc(C)ccc3C)oc1C)c(=O)n2C", "activity change, negative = inhibition": "inactive: -0.0957%"},
      {"smiles": "NNc1ccc(S(=O)(=O)O)cc1", "activity change, negative = inhibition": "inactive: -5.73%"},
      {"smiles": "CNC(=O)CSc1nc2c(c(C(F)(F)F)c1C#N)CC(C(C)(C)C)CC2", "note": "(configuration not stated)", "Potency": "inconclusive: 25.1 µM [inhibitor, partial curve, poor fit]"},
      {"smiles": "COc1ccc2c(-c3ccccc3)cc(SCC(=O)N3CCOCC3)nc2c1", "Potency": "inconclusive: 56.2 µM [inhibitor, partial curve, poor fit]"},
      {"smiles": "C#CCSc1nc2sc3c(c2c(=O)n1-c1cccc(OC)c1)CCN(C(C)=O)C3", "Potency": "inconclusive: 35.5 µM [inhibitor, partial curve, poor fit]"},
      {"smiles": "Cc1ccc(NC(=S)NNC=O)cc1", "activity change, negative = inhibition": "inactive: 6.58%"},
      {"smiles": "COc1ccc(-c2n[nH]c3c2C(c2ccc(Cl)cc2Cl)NC3=O)cc1", "note": "(configuration not stated)", "activity change, negative = inhibition": "inactive: -8.64%"},
      {"smiles": "Cc1cccc(N2N=C(C(=O)Nc3ccc(S(=O)(=O)N4CCCCCC4)cc3)CCC2=O)c1", "activity change, negative = inhibition": "inactive: -11.6%"},
      {"smiles": "CN(Cc1c(F)cccc1Cl)C(=O)c1ccc(NS(C)(=O)=O)cc1", "activity change, negative = inhibition": "inactive: -4.28%"},
      {"smiles": "CC1(C)CC(=O)C2=C(C1)N(Cc1ccccc1)C(C1CCCCC1)=NC2(C(F)(F)F)C(F)(F)F", "activity change, negative = inhibition": "inactive: 4.1%"},
      {"smiles": "Cc1[nH]c2ccccc2c1CC(=O)NCc1cn2ccccc2n1", "activity change, negative = inhibition": "inactive: -1.55%"},
      {"smiles": "COc1ccc(C(=O)NCC(C)O)cc1", "note": "(configuration not stated)", "activity change, negative = inhibition": "inactive: -6.7%"},
      {"smiles": "CC1Cc2ccccc2N1S(=O)(=O)c1nnc(NC(=O)c2ccccc2Br)s1", "note": "(configuration not stated)", "Potency": "active: 44.7 µM"},
      {"smiles": "COc1ccccc1CNC(=O)Cn1c(=O)ccc2cc(S(=O)(=O)N3CCC(C)CC3)ccc21", "Potency": "inconclusive: 100 µM [inhibitor, single point]"},
      {"smiles": "Cc1ccc(NC(=O)CCc2c(C)nn(-c3ccc(N4CCCCC4)nn3)c2C)cc1F", "Potency": "inconclusive: 20 µM [inhibitor, full curve, poor fit]"},
      {"smiles": "O=C(NCc1cccs1)c1ccc(CSc2nc3ccncc3n2Cc2cccc(F)c2)cc1", "Potency": "inconclusive: 28.2 µM [inhibitor, partial curve, poor fit]"},
      {"smiles": "CC1Cc2cc(S(=O)(=O)NCc3ccc(F)cc3)ccc2N1C(=O)C1CCC1", "note": "(configuration not stated)", "activity change, negative = inhibition": "inactive: 7.66%"},
      {"smiles": "Cc1ccc(C(=O)Nc2ccc3c(c2)N(C)C(=O)c2ccccc2S3)cc1F", "Potency": "inconclusive: 28.2 µM [inhibitor, partial curve, poor fit]"},
      {"smiles": "CCN(Cc1ccccc1)C(=O)Nc1ccc2c(c1)N(C)C(=O)c1ccccc1S2", "Potency": "inconclusive: 25.1 µM [inhibitor, full curve, poor fit]"},
      {"smiles": "C=Cc1ccc(Cn2c(=O)n(-c3ccccc3C)c(=O)c3c4c(sc32)CN(C(C)=O)CC4)cc1", "Potency": "inconclusive: 35.5 µM [inhibitor, partial curve, poor fit]"},
      {"smiles": "COc1ccccc1CNC(=O)Nc1ccc2c(c1)N(C)C(=O)c1ccccc1S2", "Potency": "inconclusive: 22.4 µM [inhibitor, full curve, poor fit]"},
      {"smiles": "Cc1ccccc1C1CC(=O)N(c2ccc(C(F)(F)F)cc2)C2=C1C(=O)CCC2", "note": "(configuration not stated)", "activity change, negative = inhibition": "inactive: -4.57%"},
      {"smiles": "COc1ccc(CSc2nc3ccncc3n2Cc2nc(-c3ccc(OC)c(OC)c3)oc2C)cc1", "Potency": "inconclusive: 35.5 µM [inhibitor, partial curve, poor fit]"},
      {"smiles": "COC(=O)c1ccccc1NC(=O)c1ccc(N2CCCN(Cc3ccccc3F)C2=O)cc1", "activity change, negative = inhibition": "inactive: -20.4%"},
      {"smiles": "FC(F)(F)c1cccc(Nc2nc(CN3CCOCC3)nc3sc4c(c23)CCCC4)c1", "activity change, negative = inhibition": "inactive: -27.6%"},
      {"smiles": "CCCCc1nn2c(=O)cc(COC(=O)c3ccccc3NC(=O)C3CCCCC3)nc2s1", "Potency": "inconclusive: 100 µM [inhibitor, single point]"},
      {"smiles": "CC(C)(C)c1ccc2c(c1)OCCOCCOCCOc1ccc(C(C)(C)C)cc1OCCOCCOCCO2", "Potency": "inconclusive: 39.8 µM [inhibitor, partial curve, poor fit]"},
      {"smiles": "Cc1oc(-c2ccccc2F)nc1Cn1c(SCc2cccc(Cl)c2)nc2ccncc21", "Potency": "inconclusive: 20 µM [inhibitor, partial curve, poor fit]"},
      {"smiles": "Cc1ccc(-n2ncc3c(N4CCN(Cc5ccccc5)CC4)ncnc32)cc1C", "Potency": "inconclusive: 14.1 µM [inhibitor, full curve, poor fit]"},
      {"smiles": "COCCn1c(=O)[nH]c2cc(C(=O)N3CCN(c4ccc(F)cc4)CC3)ccc2c1=O", "activity change, negative = inhibition": "inactive: -1.76%"},
      {"smiles": "OCCCC1CCCN1", "note": "(configuration not stated)", "activity change, negative = inhibition": "inactive: -5.79%"},
      {"smiles": "Cc1cc(=O)oc2cc(OCC(=O)Nc3ccc(CCO)cc3)ccc12", "activity change, negative = inhibition": "inactive: -3.98%"},
      {"smiles": "Cc1cc(C)cc(NC(=O)Cn2c(C)cc(C)c(C#N)c2=O)c1", "Potency": "inconclusive: 79.4 µM [inhibitor, partial curve, poor fit]"},
      {"smiles": "Cc1ccc(C(=O)/C=C/c2cccc(C#N)c2)o1", "activity change, negative = inhibition": "inactive: -18.4%"},
      {"smiles": "Cc1[nH][nH]c(=O)c1C(c1cccc(OCc2ccc(Cl)cc2)c1)c1c(C)[nH][nH]c1=O", "Potency": "inconclusive: 89.1 µM [inhibitor, single point]"},
      {"smiles": "Cc1csc2nc(COC(=O)c3ccc(NC(=O)c4ccccc4Br)cc3)cc(=O)n12", "Potency": "inconclusive: 15.8 µM [inhibitor, full curve, poor fit]"},
      {"smiles": "COc1ccc(OC)c(NC(=O)CN(c2ccccc2OC)S(=O)(=O)c2ccc(C)cc2)c1", "Potency": "inconclusive: 39.8 µM [inhibitor, single point]"},
      {"smiles": "COc1ccc(-n2cnc3cc(C(=O)NCCC4=CCCCC4)ccc32)cc1", "Potency": "inconclusive: 17.8 µM [inhibitor, full curve, poor fit]"},
      {"smiles": "CC(C)CCn1c(SC(C)C)nc2c1c(=O)[nH]c(=O)n2C", "activity change, negative = inhibition": "inactive: -12.7%"},
      {"smiles": "CC(Nc1ncnc2c1cnn2-c1cccc(Cl)c1)c1ccccc1", "note": "(configuration not stated)", "Potency": "inconclusive: 17.8 µM [inhibitor, full curve, poor fit]"},
      {"smiles": "CCOc1ccccc1NC(=O)Cn1c(=O)n(-c2ccc(C)c(C)c2)c(=O)c2c(C)c(C(=O)N(C)C)sc21", "Potency": "inconclusive: 56.2 µM [inhibitor, partial curve, poor fit]"},
      {"smiles": "Cc1ccc(CCNC(=O)c2ccc(CS(=O)(=O)Cc3ccc(Cl)cc3)o2)cc1", "Potency": "inconclusive: 89.1 µM [inhibitor, single point]"},
      {"smiles": "CN(CC(=O)NCc1ccc(Cl)cc1)S(=O)(=O)c1ccc2c(c1)c(=O)n(C)c(=O)n2C", "activity change, negative = inhibition": "inactive: -14.2%"},
      {"smiles": "CCCCSCCCNC(=O)c1cn(CC)c2ccc(S(=O)(=O)N(C)C3CCCCC3)cc2c1=O", "Potency": "inconclusive: 44.7 µM [inhibitor, partial curve, poor fit]"},
      {"smiles": "Cc1ccc(-c2noc(CN(C(=O)c3ccc(C(C)(C)C)cc3)C(C)C)n2)cc1", "Potency": "inconclusive: 39.8 µM [inhibitor, full curve, poor fit]"},
      {"smiles": "Cc1ccccc1-n1c(=O)c2ccccc2n(Cc2ccc(F)cc2)c1=O", "Potency": "inconclusive: 25.1 µM [inhibitor, full curve]"},
      {"smiles": "O=C(NCCN1CCOCC1)c1nn(-c2ccccc2)c(=O)c2ccccc12", "activity change, negative = inhibition": "inactive: -3.92%"},
      {"smiles": "CCCCC1CCC(C(=O)NNC(=O)c2ccc(Br)cc2)CC1", "note": "(configuration not stated)", "activity change, negative = inhibition": "inactive: -1.52%"},
      {"smiles": "N#C/C(=C/c1ccc(-c2ccccc2)cc1)C(=O)c1ccsc1", "Potency": "inconclusive: 50.1 µM [inhibitor, partial curve, poor fit]"}
    ]}
  ]
}
